Assay results published in PubChem BioAssay AID1240 (Sanford-Burnham Center for Chemical Genomics, 2008).
Out of some 50,000 compounds screened, about 800 (1.6%) showed an effect of 50% or more. This is one part of the list.

Target: Bcl-2-like protein 10 (Homo sapiens) (UniProt Q9HD36)
Experiment: TR3 peptide-Bcl-B binding displacers, biochemical primary FP assay, phenotype converters (AID 1240);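 note: 0% = Bcl-B with tracer peptide and DMSO and 100% = tracer peptide lacking Bcl-B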
Conditions: GST-Bcl-B / FITC-TR3 peptide fluorescence polarization; stronger effect = higher value; compound at 3.75 mg/L

UniProt Q9HD36, sequence (Q9HD36 whole entry, looked up): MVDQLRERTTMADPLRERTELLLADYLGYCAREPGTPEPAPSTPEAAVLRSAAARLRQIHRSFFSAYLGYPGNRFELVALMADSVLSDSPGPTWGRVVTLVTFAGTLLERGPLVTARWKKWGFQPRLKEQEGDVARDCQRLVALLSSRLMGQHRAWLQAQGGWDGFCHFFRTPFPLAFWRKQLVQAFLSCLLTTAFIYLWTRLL

SMILES	displacement [%]
Cc1ccc2nc(/C(C#N)=C/c3cc([N+](=O)[O-])ccc3O)[nH]c2c1	24.3
CC(=O)Oc1ccccc1/C=C1\C=C(c2ccc(Cl)cc2)OC1=O	108
CCc1ccccc1NC(=O)C1CC(=O)N(c2ccc(Br)cc2)C1 (stereo not given)	-5
Cc1cccc(/C=N/n2c(C)nnc2C)c1	12.2
O=C(CCc1ccccc1)Nc1ccc(Br)cc1	9.1
CN(C)Cc1c(O)ccc2c1c(-c1ccccc1)nn2-c1ccccc1	0.9
O=C(c1ccccc1)c1ccc(N2CCN(C(=O)c3ccccc3F)CC2)c(F)c1	-26.3
O=C(NC1CCCCCC1)c1cccc(Cl)c1	4.5
CCc1ccc(NC(=O)C(C)Oc2ccc(OC)cc2)cc1 (stereo not given)	5.9
CCOC(=O)C1=C(C)NC(=S)NC1c1ccc(OC(F)F)cc1 (stereo not given)	-5.4
O=C(CSc1nnc(-c2cccs2)n1-c1ccccc1)c1cccc([N+](=O)[O-])c1	-3.1
C=CCc1c(C)[nH]c2c(OC)cccc2c1=S	-6
COc1ccc(OC)c(NC(=O)CN(c2ccccc2OC)S(=O)(=O)c2ccccc2)c1	-1.1
CC(C)(C)OC(=O)C1C(=O)CC(C)(O)C(C(=O)OC(C)(C)C)C1c1ccccc1 (stereo not given)	-1.3
Cc1ccc(CCC(=O)Nc2ccc(Br)cc2)o1	10.1
O=C(COc1ccc(Cl)cc1Br)NNC(=O)c1cccc(O)c1	-6.7
CC(=O)NC(c1ccc(C)cc1)c1c(OC(=O)COc2ccccc2)ccc2ccccc12 (stereo not given)	-49.5
NC(=O)C1CCN(C2CC(=O)N(Cc3ccc(Cl)cc3)C2=O)CC1 (stereo not given)	-6.6
COc1cc(C=C2C(=O)NC(=O)NC2=O)ccc1OCc1c(C)no[n+]1[O-]	-3.9
Cc1ccc([N+](=O)[O-])cc1N1C(=O)C2C(C1=O)C1C=CC2C12CC2 (stereo not given)	1.9
O=P(Cc1cccc[n+]1[O-])(c1ccccc1)c1ccccc1	16.2
Cc1nn(C)c(C)c1NC(=O)c1ccc([N+](=O)[O-])cc1	5.1

SMILES	displacement [%]
COC(=O)c1c(-c2cccc3ccccc23)csc1N	-6.8
CCOc1cc(C2/C(=C(\O)c3ccc(C)cc3)C(=O)C(=O)N2c2nncs2)ccc1O (stereo not given)	8.3
Cc1ccnc(NC(=O)c2ccc(OCC(C)C)cc2)c1	-8.5
CC(C)(C)c1cc(-c2ccccc2)n[nH]1	12.9
Cc1ccccc1NC(=O)C1CC(=O)N(c2ccccc2)C1 (stereo not given)	6.2
O=C(CSc1nc2ccccc2s1)Nc1nc2ccccc2s1	7.4
CCOC(=O)c1sc(NC(=O)C2CCCC2)c(C(=O)OCC)c1C	-10.4
CCOc1ccc(/C=C2\SC(=S)N(NC(=O)c3ccccc3)C2=O)cc1	12
CCOC(=O)c1c(N2C(=O)C3CC=C(Cl)CC3C2=O)sc2c1CCCC2 (stereo not given)	-14.9
COc1ccc(-c2noc(-c3ccc(C)c([N+](=O)[O-])c3)n2)cc1	-0.4
C=C1c2cc(OC)ccc2NC(=O)N1CC	4
CC(C)CC(=O)NC(NC(=S)Nc1cccc(Cl)c1)C(Cl)(Cl)Cl (stereo not given)	0.7
O=C(NCc1ccccn1)C(=O)Nc1ccc(Cl)c(C(F)(F)F)c1	-14.1
CSc1ccc(S(=O)(=O)N(CC(=O)Nc2cccc(C(C)=O)c2)c2ccc(C)cc2)cc1	13.1
COc1ccc(/C=N/N=C2/NC(=O)C(CC(=O)O)S2)cc1OC (stereo not given)	-2.1
Cc1cc(OCCCCN2CCCC2)ccc1Cl	-10.1
CC(=O)c1cccc(NC(=O)CN(c2cccc([N+](=O)[O-])c2)S(=O)(=O)c2ccccc2)c1	0
C/C(=N\Nc1nc(C)cc(C)n1)c1cccs1	-1.2
COc1ccccc1-c1c(C(F)(F)F)oc2c(CN3CC(C)OC(C)C3)c(O)ccc2c1=O (stereo not given)	-5.8
O=C1NC(=O)N(c2ccccc2)C(=O)/C1=C\c1ccc(Cl)cc1	1.4
O=C1c2ccccc2NC(c2ccc(F)cc2)N1c1ccc(Cl)cc1 (stereo not given)	14.4
CCOc1cc(/C=N\N2CCN(c3ccccc3)CC2)ccc1O	5.4

SMILES	displacement [%]
CC1=NN(c2ccc(S(N)(=O)=O)cc2)C(=O)/C1=C\c1ccc(-c2ccc(Cl)c([N+](=O)[O-])c2)o1	11.2
CCCOc1cccc(C(=O)Nc2sc(CC)cc2C(=O)OCC)c1	-16.7
C=CCNC(=O)CN(c1cc(OC)ccc1OC)S(C)(=O)=O	2.8
COc1ccc(OC(C)C(=O)Nc2ccc([N+](=O)[O-])cc2OC)cc1 (stereo not given)	13.2
Oc1cccc(C=NC2CCCCC2)c1	-8.5
CCSc1nnc(N2C(=O)c3ccc(Oc4ccc([N+](=O)[O-])cc4)cc3C2=O)s1	-5.8
CC(=O)COc1ccc2c(C)cc(=O)oc2c1I	48.6
CCOC(=O)C1=C(CC)NC2=C(C(=O)CCC2)C1c1ccc(Cl)c(Cl)c1 (stereo not given)	0.7
O=C(O)COc1ccc2c(=O)c(Oc3ccccc3Br)coc2c1	9.5
Cc1ccc(OCCCN2CCCC2)c(C(C)(C)C)c1	7.3
O=[N+]([O-])c1ccc(/C=N/NS(=O)(=O)c2ccccc2)cc1	9.6
O=C(CCNc1ccc(Cl)cc1)c1cccs1	5.2
CCCCN(CC)Cc1c(O)ccc2c(-c3ccccc3)cc(=O)oc12	5.1
COc1ccc(NC(=O)C2CN(S(=O)(=O)c3ccccc3)CCN2S(=O)(=O)c2ccccc2)c(OC)c1 (stereo not given)	-32.7
Cc1ccccc1NC(=O)C(=O)NCc1ccncc1	11.4
CCOC(=O)c1c(C)oc2ccc(OCc3ccc(F)cc3)cc12	9.9
O=C(Nc1ccc(Cl)cc1)C1C2CCC3C(CCC21)C3(Cl)Cl (stereo not given)	-3.3
O=C(NC(=S)Nc1ccc(Br)cc1)c1ccco1	13.1
O=c1c2ccccc2nc(SCCc2ccccc2)n1Cc1ccccc1	-7.8
Cn1c(=O)c2c(nc(Oc3ccccc3)n2C)n(C)c1=O	10.6
COc1cccc(CN2CCN(C3CCN(Cc4ccccc4)CC3)CC2)c1OC	-18.2
COc1ccc(NC(=O)COc2ccc(Cl)cc2)cc1	17.7

SMILES	displacement [%]
COCCNC(=O)c1cc2n(n1)C(C(F)(F)F)CC(c1ccc(F)cc1)N2 (stereo not given)	2.2
O=C(CN1C(=O)/C(=C/c2ccccc2)SC1=S)NNC(=O)c1ccccc1Br	-9
O=C(O)CN1C(=O)/C(=C\c2cccc(Cl)c2)SC1=S	21.4
Cc1ccc(-n2nc3cc(C)c(NC(=O)c4ccccc4)cc3n2)cc1	-4.4
O=C(Nc1ccc(-c2nc3ccccc3o2)c(O)c1)c1cc(I)ccc1Cl	5
CC(NS(=O)(=O)c1ccc(Cl)cc1)c1ccccc1 (stereo not given)	11.4
C=CCOc1ccc2c(C)cc(=O)oc2c1I	4.5
Cc1ccc(OCC(=O)N/N=C\C=N/NC(=O)COc2ccc(C)cc2)cc1	-1.6
COc1nc(N2C(C)CCCC2C)nc(N2C(C)CCCC2C)n1 (stereo not given)	-9.8
O=C(Nc1nccs1)C1CC1(c1ccccc1)c1ccccc1 (stereo not given)	-4.2
O=C1CC(c2ccc3c(c2)OCO3)CC2=C1C(c1ccc(C(F)(F)F)cc1)Nc1ccccc1N2 (stereo not given)	-3.1
O=C(/C=C/c1ccccc1Cl)Nc1ccc(S(=O)(=O)N2CCOCC2)cc1	0.8
Cc1ccc(N2C(=O)CC(NCCc3ccccc3F)C2=O)cc1 (stereo not given)	0.7
COc1cc(NC(=O)/C=C/c2ccc(OC)c(OC)c2)c(OC)cc1Cl	4.5
COC(=O)CN1C(C)=Nc2ccc(Br)cc2C1c1ccccc1Cl (stereo not given)	-10
Cc1ccc(S(=O)(=O)Oc2ccc(Nc3ccccc3)cc2)cc1	-4
Nc1nnc(SCC(=O)NC(c2ccccc2)c2ccccc2)s1	-0.3
Cc1ccc(C)c(S(=O)(=O)NC(=O)C(C)O)c1 (stereo not given)	0.6
COc1ccc(N(CC(=O)Nc2cccc(Cl)c2)S(C)(=O)=O)cc1	4.4
Cc1ccc2nc(-c3ccccc3C)oc(=O)c2c1	-10.9
O=C(Nc1ccc(N2CCCCC2)cc1)c1cccs1	2.3
COC(=O)c1ccccc1NC(=O)COc1ccc(Br)cc1	20.7

SMILES	displacement [%]
CCc1ccccc1NS(=O)(=O)c1cccc([N+](=O)[O-])c1	7.4
CC(=O)Nc1ccccc1NC(=O)Cc1ccc(Cl)cc1	-8.8
COc1ccc(/C=C2\SC(N3CCN(C(=O)CCCN4C(=O)/C(=C/c5cccs5)SC4=S)CC3)=NC2=O)cc1	10.1
COc1ccccc1NS(=O)(=O)c1ccc(C)cc1C	4.1
CC1=C(C(=O)OCCOc2ccccc2)C(c2ccc(Cl)c(Cl)c2)C2=C(CCCC2=O)N1 (stereo not given)	5.2
Cc1ccc(C)c(NCn2nnc3ccccc32)c1	-8.5
CC(=O)c1c(-c2ccccc2)[nH]n(-c2nc3ccccc3s2)c1=O	-20.1
COc1ccc2oc(=O)c(C(=O)N(Cc3ccccc3)Cc3ccccc3)cc2c1	-12.1
CCOc1ccc(N2C(=O)S/C(=C\c3ccccc3OC)C2=O)cc1	32.7
C/C(CCc1oc2ccc(Cl)cc2c1-c1ccc(C)o1)=N\O	-0.5
COc1ccc(C2C(C(=O)OC(C)C)C(=O)CC(C)(O)C2C(=O)OC(C)C)cc1 (stereo not given)	1
COc1ccc(C(=O)Nc2ccc(C)cc2C)cc1OC	15.4
Cc1cc(C)n(-c2nc(-c3ccccc3)cc(-c3ccc(F)cc3)n2)n1	-10
CCOc1ccccc1N(CC(=O)NC1CCCCC1)S(=O)(=O)c1ccccc1	10.8
O=C(Nc1c(F)c(F)c(F)c(F)c1F)c1ccco1	-5.7
COc1cc(/C=C2/C(=O)N(c3ccc(Cl)c(C(=O)O)c3)N=C2C)ccc1Oc1nc2c(c(=O)n(C)c(=O)n2C)n1C	-4.8
O=C(O)c1cc(-c2cccc(Cl)c2)nc2ccccc12	-0.4
COc1ccc(N2C(=O)/C(=C/c3ccc(OC)c(OC)c3)SC2=S)cc1	6.5
Cc1ccc(C(=O)N/C(=C\c2ccco2)C(=O)Nc2ccccc2C)cc1	-9.1
CC(=O)c1cccc(-c2ccc(/C=C3\C(=O)N(c4cccc(C(=O)O)c4)N=C3C)o2)c1	28.2
CC1(C)CC(=O)CC(c2ccccc2)(C(F)(F)F)O1 (stereo not given)	1.9
C=C(C)CNC(=S)NNC(=O)c1cccc(C)c1	-3.7
